Experimental data reported in patent publication EP1141005B1 (Angiogenetics Sweden AB, dated 2007).

Molecular target: GAL4/HIF 71-826 (human, UniProt P04386 1-147 (Saccharomyces cerevisiae entry))
Test: cell-based or functional assay

B1: SRC-1 (full-length transcriptional coactivator SRC-1) (other, human, UniProt Q15788 1-1441, looked up)
chain: MSGLGDSSSDPANPDSHKRKGSPCDTLASSTEKRRREQENKYLEELAELLSANISDIDSLSVKPDKCKILKKTVDQIQLMKRMEQEKSTTDDDVQKSDISSSSQGVIEKESLGPLLLEALDGFFFVVNCEGRIVFVSENVTSYLGYNQEELMNTSVYSILHVGDHAEFVKNLLPKSLVNGVPWPQEATRRNSHTFNCRMLIHPPDEPGTENQEACQRYEVMQCFTVSQPKSIQEDGEDFQSCLICIARRLPRPPAITGVESFMTKQDTTGKIISIDTSSLRAAGRTGWEDLVRKCIYAFFQPQGREPSYARQLFQEVMTRGTASSPSYRFILNDGTMLSAHTKCKLCYPQSPDMQPFIMGIHIIDREHSGLSPQDDTNSGMSIPRVNPSVNPSISPAHGVARSSTLPPSNSNMVSTRINRQQSSDLHSSSHSNSSNSQGSFGCSPGSQIVANVALNQGQASSQSSNPSLNLNNSPMEGTGISLAQFMSPRRQVTSGLATRPRMPNNSFPPNISTLSSPVGMTSSACNNNNRSYSNIPVTSLQGMNEGPNNSVGFSASSPVLRQMSSQNSPSRLNIQPAKAESKDNKEIASILNEMIQSDNSSSDGKPLDSGLLHNNDRLSDGDSKYSQTSHKLVQLLTTTAEQQLRHADIDTSCKDVLSCTGTSNSASANSSGGSCPSSHSSLTERHKILHRLLQEGSPSDITTLSVEPDKKDSASTSVSVTGQVQGNSSIKLELDASKKKESKDHQLLRYLLDKDEKDLRSTPNLSLDDVKVKVEKKEQMDPCNTNPTPMTKPTPEEIKLEAQSQFTADLDQFDQLLPTLEKAAQLPGLCETDRMDGAVTSVTIKSEILPASLQSATARPTSRLNRLPELELEAIDNQFGQPGTGDQIPWTNNTVTAINQSKSEDQCISSQLDELLCPPTTVEGRNDEKALLEQLVSFLSGKDETELAELDRALGIDKLVQGGGLDVLSERFPPQQATPPLIMEERPNLYSQPYSSPSPTANLPSPFQGMVRQKPSLGTMPVQVTPPRGAFSPGMGMQPRQTLNRPPAAPNQLRLQLQQRLQGQQQLIHQNRQAILNQFAATAPVGINMRSGMQQQITPQPPLNAQMLAQRQRELYSQQHRQRQLIQQQRAMLMRQQSFGNNLPPSSGLPVQMGNPRLPQGAPQQFPYPPNYGTNPGTPPASTSPFSQLAANPEASLANRNSMVSRGMTGNIGGQFGTGINPQMQQNVFQYPGAGMVPQGEANFAPSLSPGSSMVPMPIPPPQSSLLQQTPPASGYQSPDMKAWQQGAIGNNNVFSQAVQNQPTPAQPGVYNNMSITVSMAGGNTNVQNMNPMMAQMQMSSLQMPGMNTVCPEQINDPALRHTGLYCNQLSSTDLLKTEADGTQQVQQVQVFADVQCTVNLVGGDPYLNQPGPLGTQKPTSGPQTPQAQQKSLLQQLLTE
modifications: [35S]methionine-labeled in the pull-down of paragraph 40 (in vitro translated)
luciferase activity, GAL4-responsive reporter, COS7, hypoxia with SRC-1 against hypoxia without exogenous coactivators: 34 fold
